The record followed here is article PMC6919601, “Identification of Plasmodium dipeptidyl aminopeptidase allosteric inhibitors by high throughput screening” (PLoS ONE, 2019).

Structures are written as SMILES. The whole screen tested about 110,000 compounds, of which about 230 (0.21%) showed an effect of 50% or more. The list shows a part of the results.
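Further: 30 min substrate incubation versus DMSO and 10 µM JCP410 controls.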

The target in the experiment is DPAP1 (Plasmodium falciparum, UniProt Q8IIJ9). The experiment in a line: primary screen, percent inhibition; read by cleavage of a fluorogenic dipeptide substrate; higher = more effect of the substance. Set-up: species or system P. falciparum D10 trophozoite lysates; single well.
Sequence of DPAP1 (Q8IIJ9 whole entry, looked up): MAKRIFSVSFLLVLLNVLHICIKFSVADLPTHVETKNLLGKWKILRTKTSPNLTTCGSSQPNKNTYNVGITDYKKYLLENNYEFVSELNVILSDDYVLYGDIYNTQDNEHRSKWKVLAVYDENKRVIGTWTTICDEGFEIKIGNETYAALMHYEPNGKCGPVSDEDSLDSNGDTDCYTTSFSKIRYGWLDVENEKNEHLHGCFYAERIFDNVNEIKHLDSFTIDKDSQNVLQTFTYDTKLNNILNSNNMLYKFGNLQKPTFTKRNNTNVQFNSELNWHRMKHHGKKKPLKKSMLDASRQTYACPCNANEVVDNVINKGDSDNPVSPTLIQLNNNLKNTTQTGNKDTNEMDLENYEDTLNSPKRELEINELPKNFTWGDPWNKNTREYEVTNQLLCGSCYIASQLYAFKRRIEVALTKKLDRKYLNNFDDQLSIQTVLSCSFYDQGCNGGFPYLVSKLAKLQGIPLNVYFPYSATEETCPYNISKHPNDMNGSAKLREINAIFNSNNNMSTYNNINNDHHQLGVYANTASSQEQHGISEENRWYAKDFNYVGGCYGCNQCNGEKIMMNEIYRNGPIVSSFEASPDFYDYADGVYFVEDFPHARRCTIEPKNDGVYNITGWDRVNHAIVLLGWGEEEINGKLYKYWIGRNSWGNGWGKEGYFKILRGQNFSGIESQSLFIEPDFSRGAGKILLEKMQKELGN
Turning to `Cc1nc2c(c(C)c1CCC(=O)NCCc1c[nH]cn1)c(=O)n(C)c(=O)n2C`, the “% Inhibition @ 10 uM” value turned out to be 1.91%.
To `O=C(O)c1cc(-c2ccc3c(c2)OCO3)nc2ccc(Br)cc12` belongs -5.7%; to `CCOc1ccc(-c2[nH]nc3c2C(c2cccs2)C(C#N)=C(N)O3)cc1OC` (centres unmarked), 0.674%.
To `CCCCCCc1cc(O)c2c3c(c(=O)oc2c1)CCC(C)C3` (centres unmarked) belongs -2.6%; to `O=C(O)CCCCCN1C(=O)C(O)=C(C(=O)/C=C/c2ccccc2)C1c1ccccc1F` (centres unmarked), -1.93%.
To `O=C(/C=C/c1ccccc1)NC(=S)N1CCOCC1` belongs -2.66%; to `COc1ccccc1/C=C1/SC(Nc2ccccc2O)=NC1=O`, -6.36%.
For `Cc1cc(C)c(S(=O)(=O)Nc2ccc(F)cc2)c(C)c1`, the “% Inhibition @ 10 uM” value is listed as 2.46%.
To `COc1ccc(CCNc2nc3ccc(C)cc3n3nnnc23)cc1OC` belongs -2.92%.
In the case of `FC(F)Oc1ccccc1C1C=C(c2ccc(Br)s2)Nc2ncnn21` (centres unmarked), the “% Inhibition @ 10 uM” value is listed as 0.219%.
As to `Cc1cc(NC(=O)C(=O)NC(C)CCc2ccccc2)no1` (centres unmarked), the “% Inhibition @ 10 uM” value is reported as -3.49%.
To `O=C1/C(=C\c2cccnc2)Oc2cc(O)ccc21` belongs 0.628%; to `CC(C(=O)NCCCN1CCOCC1)n1cccc1C(=O)c1ccccc1` (centres unmarked), 5.84%.
On to `COc1ccccc1C(=O)Nc1cccc(NC(=O)c2ccccc2OC)n1`, for which the “% Inhibition @ 10 uM” value is given as -0.942%.
To `CN(C)c1ccc(CN2CCC(O)CC2)cc1` belongs 0.847%.
To `CN(C)c1ccc(C2C(C(=O)c3ccc(F)cc3)=C(O)C(=O)N2Cc2cccnc2)cc1` (centres unmarked) belongs 1.29%.
The value for `CCOc1ccc2ncc(C(=O)c3ccccc3)c(S(=O)(=O)c3ccccc3)c2c1` was 0.0695%; that for `O=C(Nc1ccccc1C(=O)Nc1ccccc1)c1ccc(F)cc1` was -5.15%.
On to `O=C1c2ccccc2C2=Nc3ccccc3SC(c3ccc(Cl)cc3)C12` (centres unmarked), for which the “% Inhibition @ 10 uM” value is listed as 2.22%.
To `CCCCCCNC(=O)c1cccc2c1C(=O)N(C1CCCCC1)C2` belongs 4.01%; to `Cc1nc(-c2ccccc2)nc2nc(-c3ccccc3)cc(O)c12`, -5.36%.
Consider `CCOC(=O)c1c(C)[nH]c(C)c1S(=O)(=O)NCC(=O)N1CC=C(c2ccccc2)CC1`, for which the “% Inhibition @ 10 uM” value is 2.24%.
Take `CCOC(=O)N1CCN(CC(O)COc2ccc3c(c2)c(C(C)=O)c(C)n3-c2ccc(C)cc2)CC1` (centres unmarked): the “% Inhibition @ 10 uM” value was -0.764%.
The value for `O=C(Cn1c(-c2ccccn2)nc2ccccc21)NCCc1ccccc1` was 2.27%.
On to `CCCn1c(NCc2cc(OC)c(O)c(OC)c2)nc2ccccc21`, for which the “% Inhibition @ 10 uM” value was -3.52%.
The value for `Cc1cc(-c2ccc(S(=O)(=O)N3CCC(Cc4ccccc4)CC3)s2)on1` was 3.41%; that for `Cc1ccc(CCNC(=O)CS(=O)Cc2nc(-c3ccccc3F)oc2C)cc1` (centres unmarked) was -8.65%.
Take `c1ccc(Nc2cc(-c3ccccc3)on2)cc1`: the “% Inhibition @ 10 uM” value is -9.37%.
Consider `O=C(COc1ccccc1Cl)N(Cc1ccco1)Cc1ccccc1Cl`, for which the “% Inhibition @ 10 uM” value was -5.91%.
To `Cc1ccc(CSc2nc3ccc(C(=O)NCCN4CCOCC4)cc3n2C)cc1` belongs -1.97%.
To `O=C1Nc2ccccc2SCC1CC(=O)N1CCN(Cc2ccccc2)CC1` (centres unmarked) belongs -6.05%.
To `Cc1ccc(N2CCN(C(=O)c3ccccc3C(=O)O)CC2)cc1` belongs 5.07%.
As for `COc1ccc2c(c1OC)C(=O)N(c1nc(-c3ccc(C)cc3)cs1)C2=O`, the “% Inhibition @ 10 uM” value was 2.26%.
The value for `Cc1ccc(Sc2cc(C(=O)NCCCN3CCOCC3)c3ccccc3n2)cc1` was -10.3%.
The value for `O/N=C1/CCCSc2ccccc21` was 1.27%; that for `O=C(Nc1ccc2c(c1)OCCO2)C1c2ccccc2Oc2ccccc21` was -0.988%.
To `CC1CCN(C(=O)c2cc3c(-c4ccc(Cl)cc4)nn(C)c3s2)CC1` belongs 2.14%; to `CCOc1cccc(C(=O)N(Cc2cc(OC)c(OC)c(OC)c2)C2CCS(=O)(=O)C2)c1` (centres unmarked), 0.0367%; to `O=C1CCC(=O)N1c1cccc2ccccc12`, 5.04%.
On to `CCCC(=O)N1CCN(c2ccc(NC(=O)CSc3ccc(Cl)cc3)cc2)CC1`, for which the “% Inhibition @ 10 uM” value is listed as -0.519%.
The value for `CCN(/C=N/c1c(C#N)sc2nc3ccccc3n12)CC` was 0.687%.
The value for `Cc1cc(C)cc(CSC[C@H](NC(=O)c2ccccc2)C(=O)NCC#N)c1` was -3.49%; that for `CN(C)CCCN(CCCN(C)C)Cc1cc([N+](=O)[O-])ccc1O` was 2.1%.
To `CCOc1ccc2nc(NC(=O)COc3ccc(C)cc3)sc2c1` belongs -0.95%.
On to `Nc1c(C(=O)Nc2cc(Cl)cc(Cl)c2)sc2nc(-c3ccncc3)ccc12`, for which the “% Inhibition @ 10 uM” value was 17.8%.
To `CCSc1nc2c(c(=O)[nH]c(=O)n2C)n1Cc1ccc(Cl)cc1` belongs -2.89%; to `COc1ccc(COC(=O)N[C@@H](CC(C)C)C(=O)NCC#N)cc1`, -8.26%.
Turning to `CNS(=O)(=O)c1ccc2nc(NC(=O)c3ccncc3)sc2c1`, the “% Inhibition @ 10 uM” value is -1.05%.
The value for `CCOC(=O)c1[nH]c(C)c(C(=O)NCCN2CCOCC2)c1C` was -3.44%.
For `NC(=O)c1ccccc1NC(=O)c1cccnc1`, the “% Inhibition @ 10 uM” value is on record as -3.71%.
As for `OCCN(CCO)C1CCC(c2ccccc2)CC1` (centres unmarked), the “% Inhibition @ 10 uM” value was 3.19%.
To `Cc1cc(-c2ccc(C)c(S(=O)(=O)N3CCC(N(C)C(C)C)CC3)c2)on1` belongs 4.87%.
On to `COC(=O)Nc1ccc(S(=O)(=O)N2CCOCC2)cc1`, for which the “% Inhibition @ 10 uM” value is listed as -6.68%.
To `COc1cccc(C(=O)N2C(C(=O)O)CSC2c2ccccc2Cl)c1` (centres unmarked) belongs -4.39%; to `N#CCc1ccc(NC(=O)c2ccccn2)cc1`, -1.52%; to `COC(=O)C1=NNC(C(=O)c2ccco2)C1c1ccccc1` (centres unmarked), 0.0289%.
To `Cc1cccc(N2C(=O)CC(NC3CCCC3)C2=O)c1` (centres unmarked) belongs 1.58%.
The value for `C#CCOC(=O)CSc1nc2ccccc2s1` was -10.1%.
As to `CCCNc1nc2c(c(=O)n(C)c(=O)n2C)n1C(C)C`, the “% Inhibition @ 10 uM” value is listed as -3.27%.
The value for `Cc1ccc(C2C(=O)N(C3CCCCC3)CC(=O)N2CCc2ccccc2)cc1` (centres unmarked) was -3.94%; that for `Cc1ccccc1S(=O)Cc1ccc(C(=O)NCCc2cccs2)o1` (centres unmarked) was 9.97%.
The value for `O=C(Cn1ncc2c3ccccc3nc-2c1O)N1CCN(Cc2ccccc2)CC1` was 5.05%; that for `COc1ccccc1N1CCN(C(=O)c2ccccc2Br)CC1` was -3.77%.
The value for `CCC(Oc1ccccc1)C(=O)Nc1ccncc1` (centres unmarked) was 0.24%; that for `C#CCn1c(CCCNC(=O)c2ccco2)nc2ccccc21` was -1.22%; that for `Cn1c(C(O)(c2ccccc2)c2ccccc2)nc2ccccc21` was 6.49%.
Consider `CCNC(=O)c1ccccc1NC(=O)c1ccc(OC)c(S(=O)(=O)N2CCCC2)c1`, for which the “% Inhibition @ 10 uM” value turned out to be 0.727%.
Take `O=C(Nc1nc2nc(-c3ccccc3)cc(O)n2n1)c1ccccc1`: the “% Inhibition @ 10 uM” value is recorded as -4.91%.
To `CCN(CC)CCCNc1ncnc2c1cnn2-c1ccc(C)cc1` belongs -0.0781%; to `CCOC(=O)c1c(NC(=O)N2CCC(CN3CCOCC3)CC2)sc2c1CCCC2`, 4.67%; to `O=C(NC1CCCCC1)c1ccccc1NC(=O)C(F)(F)F`, -5.34%.
The value for `CC(NC(=O)c1nn(C)c(=O)c2ccccc12)c1ccccc1` (centres unmarked) was 2.31%; that for `CCOC(=O)C1=C(C)N=c2s/c(=C\c3cc(OC)ccc3OC)c(=O)n2C1c1ccc(N(C)C)cc1` (centres unmarked) was 4.52%.
To `CCOC(=O)c1c(NC(=O)Cc2coc3cc(C)cc(C)c23)sc(C)c1C` belongs 1%; to `O=c1oc2ccc(Cl)cc2n1S(=O)(=O)c1ccccc1`, -4.43%.
`CCOC(=O)N1CCN(Cc2cc(=O)oc3ccc(OCC)cc23)CC1`: the “% Inhibition @ 10 uM” value came to 1.67%.
The value for `O=[N+]([O-])c1cccnc1N1CCOCC1` was -4.4%; that for `CCOC(=O)N1CCN(S(=O)(=O)N2CCCC(C(=O)NCCOC)C2)CC1` (centres unmarked) was -3.12%; that for `COc1ccc(C2C(C#N)=C(N)N(c3ccc(Cl)cc3)C3=C2C(=O)CC(C)(C)C3)cc1` (centres unmarked) was -2.21%.
As to `O=C(O)C1C2CC3CC(C2)CC1(n1ncc(Cl)c(Cl)c1=O)C3` (centres unmarked), the “% Inhibition @ 10 uM” value is listed as 26.7%.
To `CSc1ccccc1OC1CCN(Cc2ccccc2)CC1` belongs -9.79%.
To `O=C(Cn1cc(S(=O)(=O)N2CCCC2)c(S(=O)(=O)N2CCCC2)c1)N1CCCCCC1` belongs -5.48%; to `CCCC1=Nc2ncnn2C(c2cccc(OC)c2OC)/C1=C(/O)OCC` (centres unmarked), 3.32%.
Regarding `CC(=O)N1N=C2C3CCN(CC3)C2C1c1ccc(Cl)cc1Cl` (centres unmarked), the “% Inhibition @ 10 uM” value is reported as -2.45%.
The value for `O=C(NCCc1ccc(Cl)cc1)c1ccc2nc(N3CCOCC3)sc2c1` was 1.03%.
The value for `CCOC(=O)c1cc(C)n(-c2ccc(C(=O)NC3CCCCCC3)cc2)c1C` was -0.35%; that for `COc1cc(CO)ccc1OCc1ccc(Cl)nc1` was 5.13%.
To `Cn1nnnc1SCc1cccc(CSc2nnnn2C)n1` belongs 2.8%; to `O=S(=O)(c1cc(C(F)(F)F)ccc1Cl)N1CCCCC1`, -1.71%; to `CC(C)NC(=O)c1cc(-c2ccc(O)cc2)on1`, 3.27%.
On to `COc1cc(S(=O)(=O)NC2CC(C)(C)NC(C)(C)C2)ccc1F`, for which the “% Inhibition @ 10 uM” value was -6.94%.
To `C=CCc1cccc2cc(C(N)=O)c(=O)oc12` belongs -3.79%; to `CCCCN(C)C(=O)Cc1c(C(=O)O)[nH]c2ccccc12`, -2.01%.
Take `CCCCCCC(=O)c1c(C)[nH]c(C(=O)OCC)c1C`: the “% Inhibition @ 10 uM” value is reported as 17.5%.
To `c1ccc(CN(Cc2ccccc2)c2ncnc3[nH]cnc23)cc1` belongs 5.12%.
With `CCOC1=C(C)OC(N)=C(C#N)C1c1ccc(OC)cc1` (centres unmarked), the “% Inhibition @ 10 uM” value is 0.968%.
To `Cc1cc([N+](=O)[O-])ccc1NC(=O)c1ccc(C(C)(C)C)cc1` belongs -4.08%; to `CC(CNC(=O)c1cc2oc3ccccc3c2n1C)c1ccccc1` (centres unmarked), -2.17%; to `CC1CC(C)CN(S(=O)(=O)c2ccc(F)c(C(=O)NCCc3ccccc3Cl)c2)C1` (centres unmarked), 3.04%.
As to `CCc1nnc(NC(=O)Cn2ncc3c(=O)oc4ccc(C)cc4c32)s1`, the “% Inhibition @ 10 uM” value is on record as -0.0115%.
Consider `CC(C)(C)N1C(=O)c2ccc(C(=O)c3ccc(C(=O)O)cc3)cc2C1=O`, for which the “% Inhibition @ 10 uM” value came out at 3.44%.
